Measurements reported in the supplement of paper PMC4967469.
Lines with a small IC50 respond at low doses; a limit (>, <) means that the fit lies beyond the doses tested. AUC is the area under the same curve over the 256-fold range up to the top dose, as a fraction: 1 means no effect, lower means more sensitive.

Compound: COc1ccc(C2=N[C@@H](c3ccc(Cl)cc3)[C@@H](c3ccc(Cl)cc3)N2C(=O)N2CCNC(=O)C2)c(OC(C)C)c1 [Nutlin-3a]
Test: Viability of human cancer cell lines after 72 h of drug (GDSC screen)
Description: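 Human cancer cell lines in 384-well plates, medium with 10% serum, drug for 72 h over a 256-fold dose range (nine 2-fold or five 4-fold steps up to the top dose). Adherent lines were fixed and stained with the nucleic acid dye Syto60, suspension lines read with resazurin; signal relative to control wells, capped at 0 and 100%. One two-parameter sigmoid per drug and line, fitted in a mixed model over all curves with the slope shared within a line.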

Row | Cell Line | AUC | IC50 [µM]
1 | EBC-1 (lung squamous cell carcinoma, adherent, top dose 8 µM) | 0.968 | > 8
2 | EC-GI-10 (oesophagus, adherent, top dose 8 µM) | 0.987 | > 8
3 | ECC10 (stomach, suspension, top dose 8 µM) | 0.927 | > 8
4 | EFM-192A (breast, adherent, top dose 8 µM) | 0.948 | > 8
5 | EFO-21 (ovary, adherent, top dose 8 µM) | 0.936 | > 8
6 | EFO-27 (ovary, adherent, top dose 8 µM) | 0.958 | > 8
7 | EGI-1 (biliary tract, adherent, top dose 4 µM) | 0.938 | > 4
8 | EHEB (lymphoid neoplasm, suspension, top dose 8 µM) | 0.887 | > 8
9 | EJM (lymphoid neoplasm, semi-adherent, top dose 8 µM) | 0.992 | > 8
10 | EKVX (lung adenocarcinoma, adherent, top dose 8 µM) | 0.941 | > 8
11 | EM-2 (chronic myeloid leukaemia, suspension, top dose 8 µM) | 0.962 | > 8
12 | EMC-BAC-1 (lung adenocarcinoma, adherent, top dose 8 µM) | 0.957 | > 8
13 | EMC-BAC-2 (lung adenocarcinoma, adherent, top dose 8 µM) | 0.735 | 2.7
14 | EN (endometrium, adherent, top dose 8 µM) | 0.984 | > 8
15 | ES1 (Ewing sarcoma, adherent, top dose 8 µM) | 0.979 | > 8
16 | ES3 (Ewing sarcoma, adherent, top dose 4 µM) | 0.9 | > 4
17 | ES4 (Ewing sarcoma, adherent, top dose 8 µM) | 0.737 | 2.67
18 | ES5 (Ewing sarcoma, adherent, top dose 8 µM) | 0.946 | > 8
19 | ES6 (Ewing sarcoma, adherent, top dose 8 µM) | 0.981 | > 8
20 | ES7 (Ewing sarcoma, adherent, top dose 8 µM) | 0.966 | > 8
21 | ES8 (Ewing sarcoma, adherent, top dose 8 µM) | 0.959 | > 8

Row | Cell Line | AUC | IC50 [µM]
22 | ES-2 (ovary, adherent, top dose 8 µM) | 0.99 | > 8
23 | ESO26 (oesophagus, adherent, top dose 8 µM) | 0.989 | > 8
24 | ESO51 (oesophagus, semi-adherent, top dose 8 µM) | 0.979 | > 8
25 | ESS-1 (endometrium, adherent, top dose 8 µM) | 0.98 | > 8
26 | ETK-1 (biliary tract, adherent, top dose 8 µM) | 0.979 | > 8
27 | EVSA-T (breast, adherent, top dose 8 µM) | 0.991 | > 8
28 | EW-1 (Ewing sarcoma, semi-adherent, top dose 8 µM) | 0.989 | > 8
29 | EW-3 (Ewing sarcoma, adherent, top dose 8 µM) | 0.95 | > 8
30 | EW-7 (Ewing sarcoma, semi-adherent, top dose 8 µM) | 0.909 | > 8
31 | EW-11 (Ewing sarcoma, adherent, top dose 8 µM) | 0.979 | > 8
32 | EW-13 (Ewing sarcoma, suspension, top dose 8 µM) | 0.985 | > 8
33 | EW-16 (Ewing sarcoma, adherent, top dose 8 µM) | 0.874 | > 8
34 | EW-18 (Ewing sarcoma, suspension, top dose 8 µM) | 0.958 | > 8
35 | EW-22 (Ewing sarcoma, adherent, top dose 8 µM) | 0.988 | > 8
36 | EW-24 (Ewing sarcoma, semi-adherent, top dose 8 µM) | 0.992 | > 8
37 | EoL-1-cell (haematopoietic neoplasm, suspension, top dose 8 µM) | 0.746 | 2.29
38 | FADU (head and neck, adherent, top dose 8 µM) | 0.981 | > 8
39 | FLO-1 (oesophagus, adherent, top dose 8 µM) | 0.97 | > 8
40 | FTC-133 (thyroid, adherent, top dose 8 µM) | 0.975 | > 8
41 | FU97 (stomach, adherent, top dose 8 µM) | 0.985 | > 8
42 | FU-OV-1 (ovary, adherent, top dose 8 µM) | 0.962 | > 8

Row | Cell Line | AUC | IC50 [µM]
43 | Farage (B-cell lymphoma, suspension, top dose 8 µM) | 0.926 | > 8
44 | G-292 Clone A141B1 (osteosarcoma, adherent, top dose 8 µM) | 0.962 | > 8
45 | G-361 (melanoma, adherent, top dose 8 µM) | 0.886 | > 8
46 | G-401 (kidney, adherent, top dose 8 µM) | 0.791 | 3.99
47 | G-402 (soft tissue, adherent, top dose 8 µM) | 0.786 | 4.75
48 | GA-10 (Burkitt lymphoma, suspension, top dose 8 µM) | 0.988 | > 8
49 | GAK (melanoma, adherent, top dose 8 µM) | 0.949 | > 8
50 | GAMG (glioma, adherent, top dose 8 µM) | 0.982 | > 8
51 | GB-1 (glioma, adherent, top dose 8 µM) | 0.958 | > 8
52 | GCIY (stomach, adherent, top dose 8 µM) | 0.98 | > 8
53 | GDM-1 (acute myeloid leukaemia, suspension, top dose 8 µM) | 0.877 | 7.46
54 | GI-1 (glioma, adherent, top dose 8 µM) | 0.964 | > 8
55 | GI-ME-N (neuroblastoma, adherent, top dose 8 µM) | 0.839 | > 8
56 | GMS-10 (glioma, adherent, top dose 8 µM) | 0.986 | > 8
57 | GOTO (neuroblastoma, adherent, top dose 8 µM) | 0.808 | 4.84
58 | GR-ST (lymphoblastic leukaemia, suspension, top dose 8 µM) | 0.914 | > 8
59 | GRANTA-519 (B-cell lymphoma, suspension, top dose 8 µM) | 0.852 | 5.25
60 | GT3TKB (stomach, adherent, top dose 4 µM) | 0.977 | > 4
61 | H4 (glioma, adherent, top dose 8 µM) | 0.628 | 1.12
62 | H9 (lymphoid neoplasm, suspension, top dose 8 µM) | 0.992 | > 8
63 | H290 (mesothelioma, adherent, top dose 8 µM) | 0.799 | 3.48

Row | Cell Line | AUC | IC50 [µM]
64 | H2369 (mesothelioma, adherent, top dose 8 µM) | 0.851 | 6.47
65 | H2373 (mesothelioma, adherent, top dose 8 µM) | 0.801 | 5.14
66 | H2461 (mesothelioma, adherent, top dose 8 µM) | 0.981 | > 8
67 | H2591 (mesothelioma, adherent, top dose 4 µM) | 0.817 | 3.15
68 | H2595 (mesothelioma, adherent, top dose 8 µM) | 0.954 | > 8
69 | H2731 (mesothelioma, adherent, top dose 8 µM) | 0.982 | > 8
70 | H2795 (mesothelioma, adherent, top dose 8 µM) | 0.759 | 2.76
71 | H2869 (mesothelioma, adherent, top dose 8 µM) | 0.908 | > 8
72 | H3118 (head and neck, adherent, top dose 8 µM) | 0.966 | > 8
73 | H3255 (lung adenocarcinoma, adherent, top dose 8 µM) | 0.961 | > 8
74 | H-EMC-SS (chondrosarcoma, adherent, top dose 8 µM) | 0.798 | 5.18
75 | HA7-RCC (kidney, adherent, top dose 8 µM) | 0.705 | 2.02
76 | HAL-01 (lymphoblastic leukaemia, suspension, top dose 8 µM) | 0.829 | 4.19
77 | HARA (lung squamous cell carcinoma, adherent, top dose 8 µM) | 0.963 | > 8
78 | HC-1 (hairy cell leukaemia, suspension, top dose 8 µM) | 0.907 | > 8
79 | HCC38 (breast, adherent, top dose 8 µM) | 0.986 | > 8
80 | HCC202 (breast, adherent, top dose 8 µM) | 0.98 | > 8
81 | HCC1143 (breast, adherent, top dose 8 µM) | 0.968 | > 8
82 | HCC1187 (breast, suspension, top dose 8 µM) | 0.976 | > 8
83 | HCC1395 (breast, adherent, top dose 8 µM) | 0.979 | > 8
84 | HCC1419 (breast, adherent, top dose 8 µM) | 0.97 | > 8
